Measured values published in the supplement of paper PMC10126150.
Values marked as one replicate rest on one cluster of the flow cell; about a third of the high ones do not repeat.

test system: ATP; assay: switch fluorescence ratio, 500 uM ATP over buffer (Cy3 cluster intensity, sum of 5 cycles each) (fold (ratio)); higher = stronger signal-on switching upon ATP binding; sequences stand for … in TCGTCGGCAGCGTCAGATGTGTATAAGAGACAGTTTTTTTTTTTTTTTTTTTTTTTTT…TC; details: aptamer strand: ATP DNA aptamer (quencher-CACCTGGGGGAGTATTGCGGAGGAAGG + anchor), 100 nM annealed; ATP concentration: 500 uM; one replicate
How it was run: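 For every switch-domain sequence, the fluorescence ratio is the mean of per-cluster values, each being summed target-cycle Cy3 intensity over summed buffer-cycle Cy3 intensity. Clusters outside 100-1000 RFU were excluded. On a modified Illumina MiSeq flow-cell, the Cy3-labelled switching-strand clusters were annealed to 100 nM quencher-labelled ATP aptamer, imaged in selection buffer and then after 15 min with 500 uM ATP at 22 °C. Five such cycles were run, with NaOH stripping and re-annealing between them.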
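Also: ATP exposure 15 min at 22 °C before imaging.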

Sequence	switch fluorescence ratio
GTGCGGAGGA	1.05
CGATGCATTT	1.48
CTGTAGTAGA	1.05
GGGGCCTACT	0.946
AGCCCAATTT	0.994
AATCATGAAA	1
TAATTTCTCT	1
TACAGATGGC	0.993
ATGGAGCGGT	1.09
GAGCCAAACG	0.996
CCGGTTAGAT	1.03
GCACTATTAA	1
TTTGTTGACT	0.957
CGGTGTTGGG	1.02
AAAGCAGCTC	1.09
ATCTAAGCCA	1.05
TAAGACGGAT	0.997
CTGCTATTGT	0.992
TTCGTGTACT	1.08
CGAGACTTCA	1.05
GTTCCGGCTT	0.955
AACTGAAAAT	1
AAGGTCGAGA	1.02
CGGGTAAATC	0.993
CAGGCGTTCG	1.03
TACCATG	1.01

Sequence	switch fluorescence ratio
TCACACAACG	1.23
TTAAGGTTC	0.972
TCGTCGTCT	0.98
GTAGAGTGTT	0.982
AGCCATCTGT	0.953
GGCGGATGGT	1
GGTAGGTGTG	0.98
TTTAGGCCTA	1.01
GGTGTTTCC	0.97
CTGCTTTATG	1.02
AAAAACAGCC	0.998
GATGAGATGC	1.01
AATGGAAGGA	0.965
AGTTTCTCAT	0.988
GGACTGATTT	0.991
CGGGCCGAAG	0.979
CAGCCCGGAG	1.14
AGAACGGTT	1.04
CGAACACCTT	1.13
TAATTCTCGC	1.01
CTGGGACCGT	0.978
TCACGCGGTA	1.08
AGGGTCCCAC	0.994
GACATTCCTT	1.13
GGTCCGGTAA	1.05
CTGCTGGGGA	1.01

Sequence	switch fluorescence ratio
ATATATCCAC	1.05
GAAAAGCGCG	1.02
ACCGTACATG	1.47
TAGGCAATGG	1.64
GGGCTTACCA	0.996
TTAGTAACAA	0.972
GCCGGCGGC	1.05
ATGGGGTCG	0.995
GTCTCACAGT	1.03
AGCTCGTCTT	0.963
CGAAATGGTG	0.943
TCATTGTTCA	0.958
GTTGAAGTG	1.01
CCTGTTTCGA	1.02
CTACGTAGTT	1.05
GATCAAGCC	1.03
TCTTTTAACC	0.927
GCGGTCCCTT	1.01
AGTCGCTAGC	1.01
CGACTGGAGA	1.05
CATTTAGGAC	0.982
GGGGTATAAG	0.978
GTTAGCAGAG	1.04
CTAGCGACTA	1.21
CACAGTTGGG	0.99
CTATGGTAAG	1

Sequence	switch fluorescence ratio
AGGAGGGTA	1.01
CTGACGCTCA	2.73
CGCGGCGGGC	1.08
CACACTTTT	1.01
CGTAAGGAAG	1.02
GCGGGTGGCC	1.06
GACGGGGTTC	0.989
CATCTGCATC	2.13
TTAAGAGCAA	1.43
GGAATTTTTA	0.975
GTATTACGT	0.958
TCGATACAG	1.06
GCAGTAACTA	1.04
GTTGCAAGTG	0.99
GGGTGTAGGC	1.07
TTTCTATACC	1.04
TTTCTTCTTC	0.965
TCAGGAGGGA	1.09
AAAAGTTAAT	0.998
TGTGGAATGA	1.02
TGCAACATAT	2.04
ATGAGTGCGG	0.978
GTCTTAACCA	1.01
ATATTATGCT	0.943
GGGCACTTAT	1.05
GAAAGAGGTT	0.972

Sequence	switch fluorescence ratio
TTGATTAGTG	0.985
AGTGATTGAG	0.973
CCCAGCATAG	3.51
AAGTACTCGA	1.23
TCCACTTGTT	1.01
AGCTTTTATA	1.01
TTCACGGGAA	0.946
ATAGTCGGCA	1
GCTATATTAT	0.98
AAAAGCTGCG	0.976
TTCAAAGGA	0.939
GAACCTTAAG	0.974
ATGGCAAGCA	1.1
CCGATTTGCA	1.67
ACCAAGAGAG	1.03
ATGACGTACT	0.901
TGCATATAAC	1.17
CGCTGATGAA	0.979
GCGGCTAAAG	1.05
TGCAGGTGCT	1.3
CAGTTCTTTC	1
AGTACCTGGA	1.19
CTGGAAGCTT	0.997
AAGTAGGAG	0.965
GCCTTCCGAA	3.85
CTTCACGTAG	1.06

Sequence	switch fluorescence ratio
AGTGTGTGGT	1.03
GCCTAAGC	0.977
ATGGTGCAAT	1.34
TCCTGTAGAC	1.32
GCTGTCTTTG	0.975
ACAGGTGACG	1.08
GCTTCGAGAG	1.01
ATGGGTCCTT	1.04
TAATCAGACT	1.08
ACAGTGGCGA	0.97
CAGCGCATTG	1.21
CGCAGGAGTC	1.49
TAAGGGCCGA	1
TCCGAAATAG	4.54
ACGATGTCCA	1.02
TGTGCCATGT	1.06
CGGAATTTAC	1.68
AGAATACTTT	1.03
GGGCACCTCT	0.991
AGTGGAGGCT	1.01
GGCGTTCTGG	1.01
GGCTGTGAAT	1.01
GAGTAGTGGA	1.01
